Measurements reported in the supplement of paper PMC9911699.
The list shows a part of the results.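 Rule for the calls: active = average curve height above 101 Omnilog units; inactive = average height at or below 101.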 Most values come without repeats; read them as rough.

Legend:
[1] = test system: Acinetobacter baumannii AB6870155; assay: respiration area under curve on compound as sole carbon source (Biolog PM, 48 h) (arbitrary Omnilog units x h (AUC)); higher = more carbon source utilisation / respiration; conditions: Biolog inoculating fluid, temperature: 37 °C
[2] = test system: Klebsiella pneumoniae KP6870155; assay: as above; conditions: Biolog inoculating fluid, temperature: 37 °C

Compound	respiration area under curve [1]	respiration area under curve [2]
C[C@@H](N)C(=O)O [D-Alanine]	active: 11400	active: 11900
NCCCCN [Putrescine]	active: 13000	active: 12300
OC[C@H]1O[C@@H](Oc2ccc(O)cc2)[C@H](O)[C@@H](O)[C@@H]1O [Arbutin]	inactive: 1710	active: 12600
O=C[C@H](O)[C@H](O)[C@@H](O)CO [L-Lyxose]	inactive: 3390	active: 10000
O=C[C@H](O)[C@@H](O)[C@H](O)[C@H](O)CO[C@@H]1O[C@H](CO)[C@@H](O)[C@H](O)[C@H]1O [Gentiobiose]	inactive: 2660	active: 12300
O=C(CO)[C@@H](O[C@H]1O[C@H](CO)[C@@H](O)[C@H](O)[C@H]1O)[C@H](O)[C@H](O)CO [Turanose]	inactive: 2030	active: 10300
